Data as given in paper PMC7212617.
No constants are given. Whether binding was seen depends on the method and setting. In cells and extracts the contact can be indirect. Some entries that bind do so weakly or less than the wild type. Where a sequence is shown, tags or fusion partners need not be part of it.

T1: endogenous CTCF tagged with the auxin-inducible degron and eGFP (CTCF-AID-eGFP) (mouse (endogenous in E14Tg2a mESC)), Q61164
T1 chain: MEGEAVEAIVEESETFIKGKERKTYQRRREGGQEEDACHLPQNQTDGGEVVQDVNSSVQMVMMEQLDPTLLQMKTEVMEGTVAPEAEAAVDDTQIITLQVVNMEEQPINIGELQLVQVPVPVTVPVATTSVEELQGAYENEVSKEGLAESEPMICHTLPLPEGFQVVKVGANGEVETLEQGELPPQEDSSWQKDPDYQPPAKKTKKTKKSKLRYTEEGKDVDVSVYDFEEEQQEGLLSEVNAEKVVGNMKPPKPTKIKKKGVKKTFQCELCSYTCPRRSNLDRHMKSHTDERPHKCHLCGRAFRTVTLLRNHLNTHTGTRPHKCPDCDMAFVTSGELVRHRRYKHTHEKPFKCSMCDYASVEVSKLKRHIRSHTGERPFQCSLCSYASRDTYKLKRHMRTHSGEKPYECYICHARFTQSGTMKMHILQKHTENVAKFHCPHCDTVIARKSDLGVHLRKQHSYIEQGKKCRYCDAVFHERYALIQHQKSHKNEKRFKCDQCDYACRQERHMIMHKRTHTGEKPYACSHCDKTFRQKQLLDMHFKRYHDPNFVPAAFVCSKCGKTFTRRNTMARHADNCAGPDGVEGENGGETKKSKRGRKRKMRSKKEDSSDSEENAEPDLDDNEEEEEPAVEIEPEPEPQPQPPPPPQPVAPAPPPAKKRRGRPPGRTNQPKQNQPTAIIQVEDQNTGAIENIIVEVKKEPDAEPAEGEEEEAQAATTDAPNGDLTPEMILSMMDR

T2: endogenous CTCF tagged with the auxin-inducible degron and eGFP (CTCF-AID-eGFP) (mouse (endogenous in E14Tg2a mESC)) (UniProt Q61164)
T2 sequence: T1 chain

B1: transgenic CTCF (3x FLAG-CTCF-mRuby2), doxycycline-inducible, knocked in at the Tigre locus, Q61164 1-736 (protein)
chain: T1 chain
B2: CLC: CTCF N terminus - CTCFL zinc fingers - CTCF C terminus chimeric protein (protein, UniProt Q61164 1-265; A2APF3 259-568; Q61164 578-736)
chain: MEGEAVEAIVEESETFIKGKERKTYQRRREGGQEEDACHLPQNQTDGGEVVQDVNSSVQMVMMEQLDPTLLQMKTEVMEGTVAPEAEAAVDDTQIITLQVVNMEEQPINIGELQLVQVPVPVTVPVATTSVEELQGAYENEVSKEGLAESEPMICHTLPLPEGFQVVKVGANGEVETLEQGELPPQEDSSWQKDPDYQPPAKKTKKTKKSKLRYTEEGKDVDVSVYDFEEEQQEGLLSEVNAEKVVGNMKPPKPTKIKKKGVKKTCDTCPFTSSKLSTFNRHIKIHSNERPHLCHLCLKAFRTVTLLRNHVNTHTGTRPHKCRDCDMAFVTSGELVRHRRYKHTYEKPFKCSLCKYASVEASKMKRHIRSHTGERPFQCCQCAYASRDSYKLKRHMRTHSGEKPYECPTCHVRFTQSGTMKIHIAQKHGENVPKYECPHCATIIARKSDLRVHLRNLHSQSPEEMKCRYCPAGFHERYALIQHQRTHKNEKKFKCKQCDYACKQERCLKAHMRMHTGEKPFSCLACNKHFRQKQLLTVHLRKYHDPNFVPNLHLCLKCDKRFSRWSNLQRHRKKCAGPDGVEGENGGETKKSKRGRKRKMRSKKEDSSDSEENAEPDLDDNEEEEEPAVEIEPEPEPQPQPPPPPQPVAPAPPPAKKRRGRPPGRTNQPKQNQPTAIIQVEDQNTGAIENIIVEVKKEPDAEPAEGEEEEAQAATTDAPNGDLTPEMILSMMDR
B3: LCL: CTCFL N terminus - CTCF zinc fingers - CTCFL C terminus chimeric protein (protein, UniProt A2APF3 1-258; Q61164 266-577; A2APF3 569-636)
chain: MAAAEVPVPSGYFTQIKEQKLKPGDLEEEKEEDGVQRVEAQEGVVKEVEAENSCLLLEARAPVESDRRILTLQTVHLESQDVHLQGLGWLSVPHSEELSGTVPEAEGILQLPSVLWLDPEPQLSLQHCVTVSIPEELYPPEELQRIHFHLLRENVLMAEENPELTPDLDESTALKKPEEDEKDQLPPQGETDKREERLLLLEMKPKEGKDDEIVLTISHLSLEEQQDPPAANQTSVPGAKAAKPKRRRQTKGKPQSFQFQCELCSYTCPRRSNLDRHMKSHTDERPHKCHLCGRAFRTVTLLRNHLNTHTGTRPHKCPDCDMAFVTSGELVRHRRYKHTHEKPFKCSMCDYASVEVSKLKRHIRSHTGERPFQCSLCSYASRDTYKLKRHMRTHSGEKPYECYICHARFTQSGTMKMHILQKHTENVAKFHCPHCDTVIARKSDLGVHLRKQHSYIEQGKKCRYCDAVFHERYALIQHQKSHKNEKRFKCDQCDYACRQERHMIMHKRTHTGEKPYACSHCDKTFRQKQLLDMHFKRYHDPNFVPAAFVCSKCGKTFTRRNTMARHADNCDPEHETLAPNKDRRPVTRTQASEGEAGHKEGEPQCPGEQALGHQGEAAGSQSPDHGLTCEIIFNMMDK
B4: transgenic CTCFL (3x FLAG-CTCFL-mRuby2), doxycycline-inducible, knocked in at the Tigre locus (protein, UniProt A2APF3 1-636)
chain: MAAAEVPVPSGYFTQIKEQKLKPGDLEEEKEEDGVQRVEAQEGVVKEVEAENSCLLLEARAPVESDRRILTLQTVHLESQDVHLQGLGWLSVPHSEELSGTVPEAEGILQLPSVLWLDPEPQLSLQHCVTVSIPEELYPPEELQRIHFHLLRENVLMAEENPELTPDLDESTALKKPEEDEKDQLPPQGETDKREERLLLLEMKPKEGKDDEIVLTISHLSLEEQQDPPAANQTSVPGAKAAKPKRRRQTKGKPQSFQCDTCPFTSSKLSTFNRHIKIHSNERPHLCHLCLKAFRTVTLLRNHVNTHTGTRPHKCRDCDMAFVTSGELVRHRRYKHTYEKPFKCSLCKYASVEASKMKRHIRSHTGERPFQCCQCAYASRDSYKLKRHMRTHSGEKPYECPTCHVRFTQSGTMKIHIAQKHGENVPKYECPHCATIIARKSDLRVHLRNLHSQSPEEMKCRYCPAGFHERYALIQHQRTHKNEKKFKCKQCDYACKQERCLKAHMRMHTGEKPFSCLACNKHFRQKQLLTVHLRKYHDPNFVPNLHLCLKCDKRFSRWSNLQRHRKKCDPEHETLAPNKDRRPVTRTQASEGEAGHKEGEPQCPGEQALGHQGEAAGSQSPDHGLTCEIIFNMMDK

Assays:
[1] = molecular target: T1, endogenous CTCF tagged with the …; assay: co-IP; nuclear lysates (2 mg) of mESCs expressing the transgenes in the presence of endogenous CTCF-AID-eGFP; GFP-Trap magnetic beads 2 h at 4 °C pull down endogenous CTCF; blot with anti-FLAG against the transgenes; conditions: remark: other sources report otherwise
[2] = molecular target: T2, endogenous CTCF tagged with the auxin-inducible degron and eGFP (CTCF-AID-eGFP) (mouse (endogenous in E14Tg2a mESC)); assay: as above

Binder	binding [1]	binding [2]
B1	binds	–
B2	–	binds
B3	–	binds
B4	–	no binding
